Reference: article PMC4336329 (PLoS ONE, 2015)
In all, about 310,000 compounds went through this assay and about 14,000 (4.5%) showed an effect of 50% or more. Effects have a minus sign here. This is one part of the list.

Biological target: human ether-à-go-go-related gene (hERG) potassium channel (human, UniProt Q12809)
Assay: primary screen, population patch clamp on CHO cells stably expressing hERG
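Further: peak tail current of the secondary pulse compared with the same well before compound.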

Chain of human ether-à-go-go-related gene (hERG) potassium channel (Q12809 whole entry, looked up): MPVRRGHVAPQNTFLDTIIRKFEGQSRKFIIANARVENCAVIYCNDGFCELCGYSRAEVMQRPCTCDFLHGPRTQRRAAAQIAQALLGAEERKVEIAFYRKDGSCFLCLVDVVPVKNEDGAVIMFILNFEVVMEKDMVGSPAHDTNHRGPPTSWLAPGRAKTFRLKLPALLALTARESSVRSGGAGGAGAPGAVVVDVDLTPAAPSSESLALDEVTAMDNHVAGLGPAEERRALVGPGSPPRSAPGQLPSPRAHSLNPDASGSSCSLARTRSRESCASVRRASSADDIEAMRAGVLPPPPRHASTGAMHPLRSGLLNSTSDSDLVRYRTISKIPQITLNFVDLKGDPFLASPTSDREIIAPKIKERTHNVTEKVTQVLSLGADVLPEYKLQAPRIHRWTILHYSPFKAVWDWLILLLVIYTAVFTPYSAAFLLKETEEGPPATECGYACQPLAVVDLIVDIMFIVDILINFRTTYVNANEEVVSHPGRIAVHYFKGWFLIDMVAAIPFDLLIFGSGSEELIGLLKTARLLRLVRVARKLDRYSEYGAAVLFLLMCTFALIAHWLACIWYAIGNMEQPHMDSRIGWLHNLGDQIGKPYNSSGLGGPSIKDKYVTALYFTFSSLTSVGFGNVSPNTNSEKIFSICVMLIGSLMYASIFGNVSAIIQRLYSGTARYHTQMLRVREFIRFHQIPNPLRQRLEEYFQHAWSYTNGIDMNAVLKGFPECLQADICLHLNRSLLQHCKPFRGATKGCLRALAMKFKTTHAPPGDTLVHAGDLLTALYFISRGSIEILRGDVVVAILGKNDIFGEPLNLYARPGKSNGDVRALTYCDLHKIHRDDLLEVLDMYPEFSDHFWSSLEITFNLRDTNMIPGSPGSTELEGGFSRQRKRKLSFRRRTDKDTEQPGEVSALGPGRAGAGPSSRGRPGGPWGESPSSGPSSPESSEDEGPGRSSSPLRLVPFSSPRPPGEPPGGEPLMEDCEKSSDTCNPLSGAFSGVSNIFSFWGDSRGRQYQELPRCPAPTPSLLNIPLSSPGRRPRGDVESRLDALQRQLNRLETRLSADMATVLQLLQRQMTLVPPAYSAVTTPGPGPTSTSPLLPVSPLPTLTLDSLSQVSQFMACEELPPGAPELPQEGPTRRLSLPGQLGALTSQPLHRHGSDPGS

| SMILES | hERG current change (%, negative = inhibition) at 10uM [%] |
| --- | --- |
| CC1(C)SC2C(NC(=O)COc3ccccc3)C(=O)N2C1C(=O)O (stereo not shown) | 13.5 |
| COCCOC(=O)C(CC(=O)O)NCc1ccco1 (stereo not shown) | -2.8 |
| COc1ccc(NC(=O)C2CCCNC2=O)cc1 (stereo not shown) | 11.6 |
| Cc1cc(Nc2ccc(F)cc2F)n2nc(C)nc2n1 | 4.46 |
| CN1CCN(NC(=O)c2ccc(Cl)cc2Cl)CC1 | 0.116 |
| Cc1cc(OCC(=O)NCc2ccncc2)c2c(C)cc(=O)oc2c1 | -30.1 |
| CSCc1cc(N(C)c2ccccc2)nc(-c2ccccc2)n1 | 22.4 |
| O=C(c1ccccc1)c1cc2ccc(O)cc2oc1=O | 8.61 |
| O=C(COC(=O)CCc1c[nH]c(=O)[nH]1)Nc1ccccc1 | 12.4 |
| COc1ccc(CCN2CC(C(=O)O)CC2=O)cc1OC (stereo not shown) | 0.984 |
| CCOC(=O)C1=C(c2ccccc2)N=c2s/c(=C\c3cccc(O)c3)c(=O)n2C1c1cccs1 (stereo not shown) | 12.2 |
| COC(=O)c1c(C(=O)OC)c(-c2ccc(Cl)cc2)n2c1CS(=O)(=O)C2 | -18.9 |
| Cc1ccc(NC(=O)CSc2nc3ccccc3c(=O)n2CCCC(=O)NCCCN2CCOCC2)cc1 | -52.6 |
| COc1ccccc1N1CCN(/N=C/C=C\c2ccccc2[N+](=O)[O-])CC1 | 26.9 |
| CCOc1ccc(CCNC(=O)Cn2nc(C)c3c(C)n(-c4ccccc4)nc3c2=O)cc1 | 14.4 |
| CCOc1ccc(OCC)c(NC(=O)CSCC(=O)O)c1 | 2.04 |
| CCOc1ccccc1N/C=C(\C#N)c1nc2ccccc2n1C | -1.21 |
| CCCCn1c(SCc2ncc(-c3ccccc3)o2)nc2cc(S(N)(=O)=O)ccc21 | -50.5 |
| O=C(Nc1sc2c(c1CN1CCOCC1)CCC2)c1ccc(F)cc1 | -3.33 |
| CC(C)CCNC(=O)NC(=O)COc1ccccc1C#N | -4.64 |
| O=C(N/N=C/c1ccc([N+](=O)[O-])cc1)c1cnccn1 | -6.52 |
| CCc1cccc(NC(=O)NC(=O)Cn2nnc(C(=O)OC)c2C(=O)OC)c1 | 10.4 |
| CC(C)n1c(SCC(=O)Nc2ccccc2)nc2c1c(=O)[nH]c(=O)n2C | -14.4 |

| SMILES | hERG current change (%, negative = inhibition) at 10uM [%] |
| --- | --- |
| N#CC(Cc1ccc(OC(F)F)cc1)c1nc2ccccc2[nH]1 (stereo not shown) | -70.1 |
| Cc1ccc(S(=O)(=O)N/N=C\c2ccc3c(c2)OCO3)c(C)c1 | 5.18 |
| Cc1nnc(NC(=O)CSc2nccn2Cc2ccccc2)s1 | -14.1 |
| CCn1c(SCC(=O)Nc2ccc3c(c2)OCO3)nc2c(c1=O)SC(C)C2 (stereo not shown) | -7.63 |
| CC(NC(=O)C1CCCC1)C1CC2CCC1C2 (stereo not shown) | 11.1 |
| COc1ccc(-n2c(=S)[nH]c3cc(C(=O)NCc4ccccc4OC)ccc3c2=O)c(OC)c1 | 16 |
| Cc1cnc(C(=O)Nc2cccc(S(=O)(=O)N(C)C)c2)cn1 | 7.84 |
| CC(=O)Nc1ccc(NC(=O)[C@@H]2CCCN2S(=O)(=O)c2ccc3c(c2)OCCO3)cc1 | 12.2 |
| Cc1c(C(=O)NC(=S)Nc2ccccc2N2CCCC2)cccc1[N+](=O)[O-] | 3.52 |
| O=C1CC(c2ccccc2)CC(O)=C1C=NCc1ccccc1 (stereo not shown) | 1.16 |
| C=CCOCC(O)Cn1c(N2CCCC2)nc2c1c(=O)[nH]c(=O)n2C (stereo not shown) | 12.7 |
| Cc1cc(C)n2cc(CSc3ncn[nH]3)nc2n1 | 0.809 |
| COc1ccc(Cl)cc1N(CC(=O)N1CCC(C)CC1)S(C)(=O)=O | -6.39 |
| Cc1ccnc(NS(=O)(=O)c2ccc(N3C(=O)Nc4ccccc4N3O)cc2)c1 | 17.9 |
| O=C(Oc1ccc(C(=S)N2CCCCC2)cc1)c1ccccc1 | -6.33 |
| Cn1c(CNC(=O)CNC(=O)c2ccccc2F)cc(=O)n(C)c1=O | 30.6 |
| CCn1c(SCC(=O)N/N=C/c2ccccc2OCC(=O)O)nnc1-c1ccccc1 | 5.58 |
| Cc1ccccc1NC(=S)N(CCN1CCOCC1)Cc1ccccc1F | 30.1 |
| CCc1nc(SCc2ccc(OC)cc2)n[nH]1 | 24.7 |
| Cn1c(=O)oc2ccc(C(=O)CSc3nnnn3-c3ccccc3)cc21 | 4.09 |
| Cc1cc(Nc2ccccc2)cc(=O)n1C | 18.6 |
| COc1ccccc1NC(=O)N1CCN(c2ccccn2)CC1 | 7.9 |
| CCOC(=O)c1cccc(NC(=O)c2cccs2)c1 | -13.1 |

| SMILES | hERG current change (%, negative = inhibition) at 10uM [%] |
| --- | --- |
| Cc1ccc(OCCC(=O)OCC(=O)N2c3ccccc3CC2C)cc1 (stereo not shown) | 17.9 |
| CCN(CC(=O)Nc1ccc(OC)cc1)C(=O)CSCc1ccc(C)cc1 | -22.2 |
| COc1cc(NC(=S)NCc2ccc(S(N)(=O)=O)cc2)cc(OC)c1 | 10.4 |
| Cc1ccccc1C(=O)NNC1CC(=O)N(c2ccc3c(c2)OCCO3)C1=O (stereo not shown) | -4.37 |
| O=C(CCC1CCCCC1)NNC(=O)NC12CC3CC(CC(C3)C1)C2 | 13.2 |
| CC(C)NC(=O)C(c1ccc(F)cc1)N(C(=O)CCC(=O)Nc1ccccn1)c1ccccc1F (stereo not shown) | 13.8 |
| O=c1cc(N2CCN(c3ccccc3Cl)CC2)[nH]c(=O)n1Cc1ccc(F)cc1 | -27.6 |
| Cc1ccc(C(=O)N(Cc2ccccc2)C(C)(C)C)cc1C | -14.9 |
| O=C(Nc1ccccc1C(=O)NCc1cccnc1)c1ccc(Cl)cc1Cl | -20.2 |
| CC(C)C(=O)OCc1cn(-c2ccc(Cl)c(Cl)c2)nn1 | 13 |
| O=C(CSc1nnc(-c2cccs2)n1-c1ccccc1)NCc1ccco1 | -73 |
| CC(Nc1ccc(Cl)cc1)c1cc(Cl)ccc1O (stereo not shown) | -7.79 |
| O=C(Nc1ccccc1)OC1C2CCC1C(N1CCCCC1)CC2 (stereo not shown) | -37.5 |
| O=C1CC(c2ccco2)CC2=C1C=Nc1ccccc1N2 (stereo not shown) | -24.9 |
| Cc1nc2sc(C(=O)c3ccccc3)c(N)c2c2c1CCCC2 | 13.1 |
| COc1cc2nc(SCC(N)=O)n(CCC3=CCCCC3)c(=O)c2cc1OC | -10.9 |
| COc1ccc(-c2csc(Nc3ccccn3)n2)cc1 | 24.2 |
| Cc1ccc(C(=O)n2c(N)nc3ccccc32)cc1 | 17.2 |
| COc1ccccc1N1CCN(C(=O)c2ccc3c(c2)CCN3S(C)(=O)=O)CC1 | -3.19 |
| COc1cccc(CNC(=O)c2cc(S(=O)(=O)N3CCCC3)cn2C)c1 | -4.9 |
| c1ccc(CCCCNCC2COc3ccccc3O2)cc1 (stereo not shown) | -28.5 |
| CCOC(=O)c1cc(CC)sc1NC(=O)COC(=O)c1cnccn1 | 0.404 |
| C=CCn1c(SCC(=O)Nc2ccccc2F)nc2ccccc2c1=O | 5.56 |

| SMILES | hERG current change (%, negative = inhibition) at 10uM [%] |
| --- | --- |
| COc1ccc(OCc2cc(C(=O)N3CCCCCCC3)no2)c(Cl)c1 | -33.9 |
| Cc1ccc(NC(=S)N2CCCC(c3nc4ccccc4[nH]3)C2)cc1 (stereo not shown) | 6.05 |
| COc1ccc(C)cc1NC(=O)CNC(c1ccccc1)c1ccccc1 | 6.01 |
| Cc1ccc(NC(=O)CC(N)=S)cc1 | 10.2 |
| CCC(=O)Nc1nnc(SCC(=O)NCCc2ccc(OC)c(OC)c2)s1 | 35.5 |
| CCN(CC)C(NC(=O)Cc1ccccc1)C(Cl)(Cl)Cl (stereo not shown) | 7.67 |
| CCCc1[nH]n(-c2nc3ccccc3s2)c(=O)c1C=NCCN1CCOCC1 | -34.5 |
| Cc1cc(N2CCN(C3CCCC3)CC2)n2c(nc3ccccc32)c1C#N | -12.9 |
| O=c1ccc2ccc(OCCOc3cccc(Cl)c3)cc2o1 | 3.9 |
| COc1ccc(-c2[nH]ncc2CNCCc2ncccc2C)cc1F | -41.7 |
| COc1ccc(-n2c(SCC(=O)Nc3cc(C)on3)nc3c(c2=O)SCC3)cc1OC | 10.9 |
| O=C(Nc1ccc2c(c1)CCC2)c1ccccc1F | 3.1 |
| CCC(=O)Nc1ccc2c(c1)nc(CCN1CCN(c3ccccc3)CC1)n2C | -33.5 |
| CCOC(=O)CCSc1nc(C)c2cc(C)c(C)cc2n1 | -12.8 |
| Cc1ncc([N+](=O)[O-])n1Cc1ccc(F)cc1 | 10.5 |
| COc1ccc(-n2c(Cc3cccn3C)nnc2SCC(=O)N2CCC(C)CC2)cc1 | -9.64 |
| O=C(c1ccc([N+](=O)[O-])c(CS(=O)(=O)c2ccc(Cl)cc2)c1)N1CCCCC1 | -32.4 |
| O=C(N=C1c2ccccc2CN1c1ccccc1)c1cccc([N+](=O)[O-])c1 | -1.72 |
| CCCCCN1C/C=C\C(c2ccc(OC)cc2)N(Cc2ccc(F)cc2)C(=O)C1 (stereo not shown) | -25.3 |
| Cc1nn(-c2ccc(F)cc2)c2c1cc(C#N)c1nc3ccccc3n12 | 9.66 |
| N/C(=N\OC(=O)COc1ccc(Br)cc1Cl)c1ccncc1 | 6.82 |
| Cc1[nH]c2ccc(F)cc2c1CCN(Cc1ccncc1)C(=S)Nc1ccc(F)cc1 | -38.4 |
